Assay results from PubChem BioAssay AID894 (National Center for Advancing Translational Sciences (NCATS), 2007).
Hit rate of the full screen: of about 150,000 compounds, about 6,500 (4.3%) were called active. Inconclusive means that the source gave no clear call. Such entries were picked first, then a sample of the others. The call rests on the fitted dose curve; in most records, active means well fitted inhibition curve with a large enough effect (not every such curve was filed as active); inconclusive means small, poorly fitted or top-dose-only effect, or another doubt; inactive means no such curve, though single readings can be large or run the other way. Potencies beside an inconclusive call are fits to weak or partial responses and may not hold up.

Each molecule was assayed against 15-hydroxyprostaglandin dehydrogenase [NAD(+)] (Homo sapiens) (UniProt P15428) (assay: qHTS Assay for Inhibitors of HPGD (15-Hydroxyprostaglandin Dehydrogenase)). Conditions: purified HPGD, NADH fluorescence kinetic, PGE2 substrate; activity change, negative = inhibition: hits give low values.
Sequence of UniProt P15428 (P15428 whole entry, looked up): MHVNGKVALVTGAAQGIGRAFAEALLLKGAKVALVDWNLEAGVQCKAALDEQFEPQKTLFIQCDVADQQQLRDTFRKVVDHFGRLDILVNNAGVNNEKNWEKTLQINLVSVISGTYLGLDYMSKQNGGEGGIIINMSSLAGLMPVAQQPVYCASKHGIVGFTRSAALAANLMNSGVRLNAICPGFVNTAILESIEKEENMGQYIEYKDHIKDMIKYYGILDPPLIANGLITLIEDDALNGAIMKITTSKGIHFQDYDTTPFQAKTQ
Procedure, shortened: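 NADH formation kinetics: reaction with 30 uM PGE2 and 1 mM NAD+ (final), 20 nM enzyme, Tris-HCl pH 8 with Tween 20, after 15 min compound preincubation at room temperature. Fluorescence change, last versus first of five reads.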
On the % scale 0 is the no-effect control and ±100 the full control effect; potency means the concentration at half of the fitted maximal effect; tags describe the fitted curve by direction and shape.

SMILES | Potency | activity change, negative = inhibition
Cc1nc2c(ccc3nc(NC(=O)c4ccc(S(=O)(=O)N(C)C)cc4)sc32)s1 | inconclusive: 35.5 µM [inhibitor, single point] | –
CCOC(=O)C1CCCN(C(=O)c2cnn3c(C(F)F)cc(-c4ccc(C)cc4)nc23)C1 (configuration not stated) | inconclusive: 31.6 µM [inhibitor, partial curve] | –
C=CCn1c(NC(=O)c2ccc(Br)o2)c(S(=O)(=O)c2ccccc2)c2nc3ccccc3nc21 | inconclusive: 35.5 µM [inhibitor, partial curve] | –
CSc1ccc2[nH]c(=O)cc(C)c2c1 | inconclusive: 28.2 µM [inhibitor, partial curve] | –
Cc1ccc(N2CCN(C(=O)c3ccccc3NC(=O)C3CC=CCC3C(=O)O)CC2)cc1 (configuration not stated) | – | inactive: -6.48%
Cc1ccc(-c2cc(-c3nnc(SCC(=O)NCC(C)C)n3N)c3ccccc3n2)cc1 | inconclusive: 8.91 µM [inhibitor, partial curve] | –
CC(C)(C)c1ccc(NC(=O)CSc2nnc(-c3n[nH]c4ccccc34)o2)cc1 | – | inactive: -17.8%
COC(=O)c1sc(N2C(=O)C(O)=C(C(=O)c3ccc(C)o3)C2c2ccc(F)cc2)nc1C (configuration not stated) | active: 8.91 µM | –
N[C@@H](Cc1cccnn1)C(=O)O | – | inactive: -0.736%
COc1ccc(C2C=C(c3ccc(Br)cc3)Nc3nc(NS(C)(=O)=O)nn32)cc1 (configuration not stated) | inconclusive: 28.2 µM [inhibitor, partial curve] | –
CCOC(=O)CNc1nc(-c2ccncc2)nc2ccccc12 | inconclusive: 31.6 µM [inhibitor, single point] | –
CC1(C)CC(=O)c2cc(OCC(=O)NCCN3CCCc4ccccc43)ccc2O1 | inconclusive: 17.8 µM [inhibitor, partial curve] | –
Cc1ccc(-c2nsc3c(N4CCN(C(=O)c5ccco5)CC4)ncnc23)cc1 | inconclusive: 31.6 µM [inhibitor, partial curve] | –
Cc1cc(NC(=O)c2ccc(NC(=O)C(C)Oc3ccccc3)cc2)no1 (configuration not stated) | – | inactive: -4.67%
CN(C)/C=C1\C(=O)Nc2ccccc21 | – | inactive: -12.9%
O=C1CCCN1CCCNc1ncnc2c1[nH]c1ccccc12 | inconclusive: 28.2 µM [inhibitor, partial curve] | –
CSc1oc(-c2ccco2)nc1S(=O)(=O)c1ccc(Br)cc1 | inconclusive: 15.8 µM [inhibitor, partial curve] | –
Cc1cc(C(=O)Nc2sc(C)c(C)c2C#N)no1 | – | inactive: -3.6%
CCOC(=O)C1(C(C)C)Oc2ccccc2C(c2ccc(OC)cc2)=C1C(=O)OC (configuration not stated) | inconclusive: 28.2 µM [inhibitor, partial curve] | –
C(=N\n1cnnc1)/c1cn(-c2cccs2)nc1-c1ccccc1 | inconclusive: 35.5 µM [inhibitor, partial curve] | –
Cc1oc(=O)c(NC(=O)c2ccc(Cl)cc2)cc1C(=O)c1ccccc1 | active: 31.6 µM | –
Cc1ccc(Nc2nc(N3CCOCC3)c3ccccc3n2)cc1 | inconclusive: 28.2 µM [inhibitor, partial curve] | –
O=S(=O)(c1ccc(NC(=S)N/N=C/c2ccc(N3CCOCC3)cc2)cc1)N1CCOCC1 | inconclusive: 25.1 µM [inhibitor, partial curve] | –
Cc1cccn2cc(CCNC(=O)c3ccc(Br)o3)nc12 | – | inactive: -10.9%

SMILES | Potency | activity change, negative = inhibition
COc1cccc(S(=O)(=O)Nc2ccc(C(=O)N3CCOCC3)cc2)c1 | – | inactive: -11.1%
COc1ccc(CCNC(=O)C2CC(=O)N(C3CCCCCCC3)C2)cc1OC (configuration not stated) | – | inactive: -2.02%
COc1cccc2c1OC(=O)CC2c1ccc(C)cc1 (configuration not stated) | inconclusive: 44.7 µM [inhibitor, partial curve] | –
CCN(Cc1cc2ccc(C)cc2[nH]c1=O)C(=O)c1ccncc1 | inconclusive: 28.2 µM [inhibitor, partial curve, poor fit] | –
CCN1CCN(c2cc(C)c3cc(NC(=O)c4ccccc4F)ccc3n2)CC1 | inconclusive: 35.5 µM [inhibitor, partial curve, poor fit] | –
N#CC1=C(N)OC2=C(C(=O)CCC2)C1C1CC=CCC1 (configuration not stated) | active: 20 µM | –
CCn1cnc2c1c(=O)n(Cc1nnc3n1-c1ccccc1SC3)c(=O)n2Cc1ccccc1 | – | inactive: -9.12%
Cc1ccc(-c2ccnc3nc(Sc4ncc(C(F)(F)F)cc4Cl)nn23)cc1 | inconclusive: 28.2 µM [inhibitor, partial curve] | –
CCn1c(CSc2nc3ccccc3[nH]2)nc2cc(C(=O)O)ccc21 | inconclusive: 14.1 µM [inhibitor, partial curve] | –
COCCN1C(=O)N[C@@H](c2ccco2)C(C(=O)OC)=C1C | – | inactive: -6.93%
O=C(O)[C@@H](O)[C@@H](O)[C@@H](O)[C@@H](O)C(=O)O (tested in a mixture with another compound) | – | inactive: 6.82%
CCn1c(=O)cc(SCC(=O)N2CCCCC2)c2ccccc21 | active: 7.94 µM | –
COc1ccc2[nH]c(=O)c(-c3noc(-c4ccccc4)n3)cc2c1 | inconclusive: 20 µM [inhibitor, partial curve] | –
Cc1ccc(C)c(-c2nc3ccc(N)cc3[nH]2)c1 | inconclusive: 28.2 µM [inhibitor, partial curve] | –
O=C(NCc1cccnc1)c1cccnc1-c1nc2ccccc2s1 | – | inactive: -18.5%
COc1ccc(N2C3=C(CC4=C2CCCC4=O)C(=O)CCC3)cc1 | inconclusive: 22.4 µM [inhibitor, partial curve] | –
O=c1c(-c2ccc(O)cc2)coc2cc(O)ccc12 | inconclusive: 31.6 µM [inhibitor, partial curve] [middle of 4 runs] | –
CC(C)(C)C(=O)n1nc(-c2ccccc2)oc1=O | inconclusive: 35.5 µM [inhibitor, single point] | –
Cc1ccc(C(=O)CC(=O)c2cccc(F)c2)c(O)c1 | active: 14.1 µM | –
C[C@H]1COc2c(N3CCN(C)CC3)c(F)cc3c(=O)c(C(=O)NCc4ccco4)cn1c23 | – | inactive: -18.4%
Cc1cccc(C)c1NC(=O)CC(NCCc1ccccc1)C(=O)O (configuration not stated) | – | inactive: -9.99%
CCCc1cc(=O)[nH]c(SCc2ccc(C#N)cc2)n1 | active: 15.8 µM | –
O=C(NCc1ccccn1)c1ccc(Cl)s1 | active: 20 µM | –
O=C(c1ccccc1)c1nc2ccccc2n(CCCn2c(=O)c(C(=O)c3ccccc3)nc3ccccc32)c1=O | – | inactive: -1.97%

SMILES | Potency | activity change, negative = inhibition
O=C(NCCCO)Nc1ccc2nc(-c3ccco3)c(-c3ccco3)nc2c1 | inconclusive: 14.1 µM [inhibitor, partial curve] | –
c1ccc(Cc2nnc3sc(-c4cccnc4)nn23)cc1 | active: 14.1 µM | –
Cc1ccc(N=Nc2c(C)[nH][nH]c2=O)c(C)c1 | – | inactive: -0.406%
Cc1cccc(CSc2ncnc3nc[nH]c23)c1 | inconclusive: 31.6 µM [inhibitor, partial curve] | –
Cc1ccc(C(=O)OCC2OC3OC(C)(C)OC3C2O)cc1 (configuration not stated) | active: 3.98 µM | –
COc1ccc2nc(-c3ccccc3)[nH]c2c1 | inconclusive: 28.2 µM [inhibitor, partial curve] | –
Cc1ccc(CN=C2Nc3ccccc3CS2)cc1 | – | inactive: -10.8%
COc1cc(-c2nnc(-c3ccccc3)o2)cc(OC)c1OC | inconclusive: 25.1 µM [inhibitor, single point] | –
O=C1CC(N2CCN(c3ccccc3)CC2)C(=O)N1c1ccc2c(c1)OCCO2 (configuration not stated) | – | inactive: 0.348%
COc1cc2c(N3CCOCC3)cc(O)c(CC(=O)Nc3ccccc3)c2cc1OC | inconclusive: 25.1 µM [inhibitor, partial curve] | –
CCNC(=O)COc1cc(C)c(Cl)c(C)c1 | inconclusive: 35.5 µM [inhibitor, single point] | –
CC1CCN(c2c(NCc3ccc(C(=O)N4CCN(C5CCCCC5)CC4)cc3)c(=O)c2=O)CC1 | inconclusive: 17.8 µM [inhibitor, partial curve, poor fit] | –
Cc1ccc(-c2nnc(SCC(=O)N3CCN(c4ccccc4)CC3)o2)cc1 | – | inactive: -3.6%
O=C(CCSc1nnc2scc(-c3ccccc3)n12)NCc1ccc2c(c1)OCO2 | inconclusive: 22.4 µM [inhibitor, single point] | –
O=C(CSc1nnc(Cc2cc(=O)[nH]c(=O)[nH]2)n1-c1ccccc1)N1CCCc2ccccc21 | inconclusive: 10 µM [inhibitor, single point] | –
CN(C)S(=O)(=O)c1ccc(C(=O)N(c2ccccn2)c2ccccn2)cc1 | – | inactive: -2.97%
COc1ccc2c(c1)CCc1c(C(=O)N3CCCC3)noc1-2 | active: 20 µM | –
COc1ccc(C(C#N)Nc2ccccc2)cc1 (configuration not stated) | – | inactive: -14%
Cc1nc(NC(=O)/C=C/c2ccccc2)sc1C(=O)Nc1cccc(Cl)c1 | inconclusive: 25.1 µM [inhibitor, partial curve] | –
O=C(CC12CC3CC(CC(C3)C1)C2)NC(=S)N1CCCCC1 | inconclusive: 22.4 µM [inhibitor, partial curve, poor fit] | –
Cc1ccc(O)c(C(=O)c2cnc3c(c2)COc2ccccc2-3)c1 | active: 12.6 µM | –
O=C1CCCN1CCCn1cnc2c([nH]c3ccc(F)cc32)c1=O | inconclusive: 22.4 µM [inhibitor, single point] | –
C=CCNC(=O)/C(C#N)=C/c1ccc(OS(=O)(=O)c2ccc(C)cc2)c(OC)c1 | active: 28.2 µM | –
Cc1cccc(C=Nc2ccc3c(c2)oc2ccccc23)c1O | inconclusive: 28.2 µM [inhibitor, partial curve, poor fit] | –
